Results on 2 molecules are retold here after patent US20190016816A1 (APTEVO RESEARCH AND DEVELOPMENT, published 2019).

Assay [1] has as its target T1, human CD137 on cells (human, UniProt Q07011 24-255). Briefly: cell-based or functional assay.
Assay [2] concerns the target T1, human CD137 on cells. The assay is described as follows: cell-based or functional assay. The source holds these as a separate data set.
Assay [3] addresses T2, human 5T4 on cells (human, UniProt Q13641 32-420).
T2 construct: also called TPBG; hu5T4
T2 sequence: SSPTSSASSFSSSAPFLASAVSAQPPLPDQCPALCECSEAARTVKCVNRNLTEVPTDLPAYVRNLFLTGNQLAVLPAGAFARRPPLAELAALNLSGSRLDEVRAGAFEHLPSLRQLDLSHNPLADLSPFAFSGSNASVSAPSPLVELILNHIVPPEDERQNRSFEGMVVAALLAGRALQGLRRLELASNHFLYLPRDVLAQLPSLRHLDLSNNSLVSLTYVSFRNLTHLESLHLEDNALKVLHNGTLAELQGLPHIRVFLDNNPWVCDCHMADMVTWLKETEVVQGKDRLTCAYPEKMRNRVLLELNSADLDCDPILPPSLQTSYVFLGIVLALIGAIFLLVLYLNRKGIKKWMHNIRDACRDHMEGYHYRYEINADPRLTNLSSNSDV
Briefly: flow cytometry on human 5T4-expressing cells. For orientation: Flow cytometry measures light scatter and fluorescence of single cells or particles in a stream.

The target of assay [4] is T2, human 5T4 on cells. Briefly: flow cytometry, CHO-K1 cells expressing human 5T4, labelled anti-human IgG secondary, MFI (mean). The procedure:
(§1) Binding studies were performed by standard flow cytometry-based staining procedures two cell lines expressing 5T4:CHO-K1 cells (obtained from Alligator) transduced with human or cynomolgus macaque 5T4 and SKOV-3 human ovarian adenocarcinoma cells which express (human) 5T4. All labeling and washes were performed in U-bottom 96-well plates in saline buffer with 0.1% BSA and 2 mM EDTA. Cell were plated at approximately 100,000 cells per well and incubated with a range of 100 nM to 0.05 nM concentrations of test molecules in […], for 30 minutes on ice. Cells were washed three times then incubated for another 30 min on ice with fluorescently-labeled secondary polyclonal antibody, F(ab′)² goat anti-human IgG (Jackson ImmunoResearch Laboratories). The cells were then washed twice and the samples acquired in a BD LSRII or a Symphony A3 flow cytometer. The sample files were analyzed using FlowJo software; the mean fluorescence intensity (MFI-mean) or median fluorescence intensity (MFI-median) of the live population of cells in each well was calculated after gating on live cells (forward vs side scatter). Nonlinear regression analysis to determine EC₅₀ values was performed in GraphPad Prism 6® graphing and statistics software.

In assay [5] the target is T1, human CD137 on cells. Briefly: flow cytometry, CHO-K1 cells expressing human CD137, PE anti-human IgG Fc secondary, MFI (median). The procedure:
(§2) Binding studies on CHO-K1 cells lines expressing CD137 were performed by standard flow cytometry-based staining procedures. CHO-K1 cells (generated by Alligator) were transfected with human or cynomolgus macaque CD137. A typical experiment would label approximately 100,000 cells per well, in 96-well plates, with a range of 100 nM to 0.05 nM binding molecule in 50 μL of saline buffer with 2% BSA and 2 mM EDTA, for 30 min on ice, followed by washes and incubation with PE-labeled secondary antibody, goat anti-human IgG Fcγ ([…]), for 20 minutes on ice. Signal from bound molecules was detected using a LSR-II™ or a Symphony A3 flow cytometer (BD Biosciences) and analyzed by FlowJo flow cytometry analysis software. Median fluorescence intensity (MFI-median) of bound molecules on live cells was determined after exclusion of doublets cells. Nonlinear regression analysis to determine EC₅₀ values was performed in GraphPad Prism 6® graphing and statistics software.

Assay [6] addresses T2, human 5T4 on cells. Briefly: flow cytometry, SKOV-3 cells (endogenous human 5T4), labelled anti-human IgG secondary, MFI (mean). The procedure: as §1
The target of assay [7] is T3, cynomolgus CD137 on cells (cynomolgus macaque, UniProt A9YYE7 24-254).
T3 construct: whole, on cells; also called CHO-K1/cynomolgus CD137 cell line; cynomolgus monkey CD137 on CD3-stimulated primary CD8 T cells
T3 sequence (A9YYE7 entry or part of it): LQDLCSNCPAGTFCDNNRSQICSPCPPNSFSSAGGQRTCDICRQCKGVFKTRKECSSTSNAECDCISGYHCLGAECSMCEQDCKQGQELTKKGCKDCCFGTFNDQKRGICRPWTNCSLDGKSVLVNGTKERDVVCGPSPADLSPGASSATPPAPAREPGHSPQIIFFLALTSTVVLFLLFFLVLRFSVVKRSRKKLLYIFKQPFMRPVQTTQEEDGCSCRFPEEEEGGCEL
Briefly: flow cytometry, CHO-K1 cells expressing cynomolgus CD137, PE anti-human IgG Fc secondary, MFI (median). The protocol: as §2

Assay [8] has as its target T4, cynomolgus 5T4 on cells (cynomolgus macaque, UniProt Q4R8Y9 35-420).
T4 construct: whole, on cells; also called CHO-K1/cynomolgus 5T4 transfectants
T4 sequence (looked up): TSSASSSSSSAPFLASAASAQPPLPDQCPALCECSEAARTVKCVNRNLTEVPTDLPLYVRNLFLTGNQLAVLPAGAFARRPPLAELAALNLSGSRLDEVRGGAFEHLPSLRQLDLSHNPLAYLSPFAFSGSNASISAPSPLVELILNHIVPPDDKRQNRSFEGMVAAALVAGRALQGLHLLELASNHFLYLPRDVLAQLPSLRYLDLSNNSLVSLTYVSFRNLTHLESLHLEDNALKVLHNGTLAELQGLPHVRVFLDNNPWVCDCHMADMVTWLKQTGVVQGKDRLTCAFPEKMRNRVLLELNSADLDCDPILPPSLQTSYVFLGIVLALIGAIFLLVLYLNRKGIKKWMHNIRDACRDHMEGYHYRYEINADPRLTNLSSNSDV
The assay is described as follows: flow cytometry, CHO-K1 cells expressing cynomolgus 5T4, labelled anti-human IgG secondary, MFI (median). The protocol:
as §1

Assay [9] deals with T1, human CD137 on cells. The assay is described as follows: cell-based or functional assay. This is another data set of the same source.
T1 sequence (Q07011 24-255 limits assumed): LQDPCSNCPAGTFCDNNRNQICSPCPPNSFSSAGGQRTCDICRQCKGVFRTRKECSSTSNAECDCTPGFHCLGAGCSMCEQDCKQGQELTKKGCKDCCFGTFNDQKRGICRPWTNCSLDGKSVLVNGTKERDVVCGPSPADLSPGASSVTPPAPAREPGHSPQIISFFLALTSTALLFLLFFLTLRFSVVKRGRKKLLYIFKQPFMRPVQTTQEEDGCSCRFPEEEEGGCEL
Assay [10] has as its target T1, human CD137 on cells. The assay is described as follows: flow cytometry, CHO-K1/human CD137 cells, PE anti-human IgG Fc secondary, MFI (mean). The procedure:
as §2, with “Median fluorescence intensity (MFI-median) of bound molecules on live cells was determined after exclusion of doublets cells.” left out

Assay [11] addresses T5, recombinant human CD137 extracellular domain (ECD) (human).
T5 construct: Monomeric, made in HEK-293; also called Hu CD137; human 4-1BB ECD
Briefly: SPR (Biacore T200, 25 C), bispecific captured on anti-human IgG, monomeric ECD injected, 1:1 fit. The procedure: Goat anti-human IgG F(ab′)2 fragment (Jackson ImmunoResearch) at 20 μg/mL in 10 mM sodium acetate (pH 4.5) was immobilized at a density of 2000 response units (RU) onto the flow cell of a CM5 research-grade sensor chip (GE) by standard amine coupling chemistry. Each bispecific variant at 200 nM in HBS-EP+ buffer was captured in the flow cell with the immobilized anti-human IgG at a flow rate of 50 μL/min for 60 sec to reach ˜500 RU response, leaving one flow cell surface unmodified as the reference. Following a 30 sec stabilization period, four different concentrations of each ECD (0, 20, 60, and 180 nM) were injected at 50 μL/min for either 120 sec followed by a 240 sec dissociation period (for 5T4) or 90 sec followed by a 180 sec dissociation period (for 4-1BB). Regeneration was achieved by duplicate injections of 10 mM glycine (pH 1.5) at a flow rate of 50 μL/min for 30 sec followed by HBS-EP+ buffer stabilization for 1 min.
Sensorgrams obtained from kinetic SPR measurements were analyzed by the double subtraction method. […] The averaged buffer reference responses were then subtracted from analyte binding responses, and the final double-referenced data were analyzed with Biacore T200 Evaluation software (2.0, GE), globally fitting data to derive kinetic parameters. […]
On the technique in general: Surface plasmon resonance follows binding to a sensor surface in real time, without labels.

Assay [12] has as its target T4, cynomolgus 5T4 on cells. The assay is described as follows: flow cytometry, CHO-K1/cynomolgus 5T4 transfectants, labelled anti-human IgG secondary, MFI (mean). The protocol: as §1
Assay [13] deals with T2, human 5T4 on cells. The assay is described as follows: flow cytometry, murine CT26 cells expressing human 5T4, labelled anti-human IgG secondary, MFI (mean).

Some results are limits rather than exact numbers.

B1: ALG.APV-006 (bispecific antibody)
chain: EVQLLESGGGLVQPGGSLRLSCAASGFTFSYGSMYWVRQAPGKGLEWVSSISSGSGSTYYADSVKGRFTISRDNSKNTLYLQMNSLRAEDTAVYYCARSSYYGSYYSIDYWGQGTLVTVSSGGGGSGGGGSGGGGSGGGGSDIQMTQSPSSLSASVGDRVTITCRASQSISSYLNWYQQKPGKAPKLLIYAASSLQSGVPSRFSGSGSGTDFTLTISSLQPEDFATYYCQQYYDNLPTFGQGTKLEIKSSSEPKSSDKTHTCPPCPAPEAAGAPSVFLFPPKPKDTLMISRTPEVTCVVVDVSHEDPEVKFNWYVDGVEVHNAKTKPREEQYNSTYRVVSVLTVLHQDWLNGKEYKCAVSNKALPAPIEKTISKAKGQPREPQVYTLPPSRDELTKNQVSLTCLVKGFYPSDIAVEWESNGQPENNYKTTPPVLDSDGSFFLYSKLTVDKSRWQQGNVFSCSVMHEALHNHYTQKSLSLSPGSGGGGSGGGGSGGGGSPS[letters of about 100 residues left out]YYGGYYSAWMDYWGQGTLVTVSSGGGGSGGGGSGGGGSGGGGSDIQMTQSPSSLSASVGDRVTITCRASQSISSYLNWYQQKPGKAPKLLIYAASSLQSGVPSRFSGSGSGTDFTLTISSLQPEDFATYYCQQTYGYLHTFGQGTKLEIKS
notes: ADAPTIR scFv-Fc-scFv homodimer; also called 1618 VHVL -Fc-1210 VHVL; parent construct
Turning to B1, the “CD137 Reporter Assay EC50” value in [1] was found to be 0.23 nM. Moreover, the “In vitro activity EC50 (nM), CD137 reporter assay” value in assay [2] came to 0.23 nM. Besides, the EC50 was determined as 15.7 nM in assay [3]; 8.6 nM in [4]; 1.2 nM in assay [5]; 7 nM in assay [6]; 1.8 nM in assay [7]; 22 nM in [8]. Moreover, the figures for the “Maximum MFI” value in assay [4], in assay [6] and in assay [8] were 14800, 1660 and 24800, respectively.

B2: ALG.APV-178 (bispecific antibody)
chain: EVQLLESGGGLVQPGGSLRLSCAASGFTFSHGSMYWVRQAPGKGLEWVSSISSGSGSTYYADSVKGRFTISHDNSKNTLYLQMNSLRAEDTAVYYCARSSYYGSYYSIDYWGQGTLVTVSSGGGGSGGGGSGGGGSGGGGSDIQMTQSPSSLSASVGDRVTITCRASQSISSYLNWYQQKPGKAPKLLIYAASSLQSGVPSRFSGSGSGTDFTLTISSLQPEDFATYYCQQYYDNLPTFGQGTKLEIKSSEPKSSDKTHTCPPCPAPEAAGAPSVFLFPPKPKDTLMISRTPEVTCVVVDVSHEDPEVKFNWYVDGVEVHNAKTKPREEQYNSTYRVVSVLTVLHQDWLNGKEYKCAVSNKALPAPIEKTISKAKGQPREPQVYTLPPSRDELTKNQVSLTCLVKGFYPSDIAVEWESNGQPENNYKTTPPVLDSDGSFFLYSKLTVDKSRWQQGNVFSCSVMHEALHNHYTQKSLSLSPGSGGGGSGGGGSGGGGSPS[letters of about 100 residues left out]YYGGYYSAWMDYWGQGTLVTVSSGGGGSGGGGSGGGGSGGGGSDIQMTQSPSSLSASVGDRVTITCRASQSISSYLNWYQQKPGKAPKLLIYAASSLQSGVPSRFSGSGSGTDFTLTISSLQPEDSATYYCQQTYGYLHTFGQGTKLEIKR
notes: Optimized ADAPTIR scFv-Fc-scFv homodimer (anti-4-1BB scFv - Fc - anti-5T4 scFv)
Regarding B2, the “CD137 reporter assay with HCC1143 cells, EC50 against ALG.APV-004” value in assay [9] amounted to 10 fold lower EC50. In [9], the “CD137 reporter assay with HCC1143 cells, EC50 against ALG.APV-006 and ALG.APV-004” value is ≤ 6 fold lower EC50. Also, the 50% effective concentration (EC50) was determined as 0.36 nM in [10]; 8.8 nM in [4]; 1 nM in assay [5]; 7.8 nM in [6]; 9.5 nM in [12]; 1.7 nM in assay [7]. The EC50 in assay [13] came to 1.8 nM; in assay [8] it was 32 nM. Moreover, the “Maximum MFI” value was determined as 6720 in assay [10]; 14100 in assay [4]; 1650 in assay [6]; 26700 in [12]; 1480 in assay [13]; 26100 in assay [8]. Besides, in assay [11], the dissociation constant Kd worked out at 70 nM.

One may read the EC50 as the concentration that produces a half-maximal response. A lower EC50 goes with a more potent agent. By Kd is commonly meant the concentration at which binding is half-saturated.
